Consider 56 molecules from article PMC4336329 (PLoS ONE, 2015).

In all, about 310,000 compounds went through this assay and about 14,000 (4.5%) showed an effect of 50% or more. The effect is printed as a negative number. The list shows a part of the results.
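Also: peak tail current of the secondary pulse compared with the same well before compound.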

The target of this assay is human ether-à-go-go-related gene (hERG) potassium channel (human, UniProt Q12809). In words: primary screen, population patch clamp on CHO cells stably expressing hERG.
Sequence of human ether-à-go-go-related gene (hERG) potassium channel (Q12809 whole entry, looked up): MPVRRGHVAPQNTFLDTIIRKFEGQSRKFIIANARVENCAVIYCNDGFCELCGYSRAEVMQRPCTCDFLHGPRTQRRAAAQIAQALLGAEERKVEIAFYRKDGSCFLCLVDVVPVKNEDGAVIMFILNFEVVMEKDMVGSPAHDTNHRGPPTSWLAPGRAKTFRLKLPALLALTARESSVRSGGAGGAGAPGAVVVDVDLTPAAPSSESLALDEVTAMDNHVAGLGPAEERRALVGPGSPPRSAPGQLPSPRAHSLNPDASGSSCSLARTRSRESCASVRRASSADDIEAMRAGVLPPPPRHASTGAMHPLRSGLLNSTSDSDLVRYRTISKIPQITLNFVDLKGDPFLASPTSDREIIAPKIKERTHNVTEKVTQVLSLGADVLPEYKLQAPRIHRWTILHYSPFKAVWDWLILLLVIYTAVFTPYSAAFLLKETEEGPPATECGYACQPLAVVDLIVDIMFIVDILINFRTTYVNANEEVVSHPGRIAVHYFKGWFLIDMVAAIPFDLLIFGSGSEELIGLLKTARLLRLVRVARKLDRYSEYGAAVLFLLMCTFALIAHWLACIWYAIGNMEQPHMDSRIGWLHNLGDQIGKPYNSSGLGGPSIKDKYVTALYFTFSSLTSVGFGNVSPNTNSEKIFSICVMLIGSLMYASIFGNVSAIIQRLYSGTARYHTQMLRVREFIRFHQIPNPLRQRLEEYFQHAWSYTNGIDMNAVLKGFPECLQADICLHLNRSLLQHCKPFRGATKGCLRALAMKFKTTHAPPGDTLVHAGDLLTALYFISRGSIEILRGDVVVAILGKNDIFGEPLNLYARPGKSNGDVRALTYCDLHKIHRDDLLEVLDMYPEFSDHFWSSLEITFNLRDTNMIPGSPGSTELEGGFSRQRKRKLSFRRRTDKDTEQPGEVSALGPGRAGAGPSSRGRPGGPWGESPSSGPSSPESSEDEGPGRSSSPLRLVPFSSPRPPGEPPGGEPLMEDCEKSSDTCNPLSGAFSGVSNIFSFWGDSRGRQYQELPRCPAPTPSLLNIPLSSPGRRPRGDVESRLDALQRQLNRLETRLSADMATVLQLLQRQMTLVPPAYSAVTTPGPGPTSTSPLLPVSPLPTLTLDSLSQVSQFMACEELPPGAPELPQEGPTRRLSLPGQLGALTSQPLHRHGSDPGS
In the case of `O=C(Cc1ccccc1)Nc1c(C(=O)N2CCCCCC2)cnn1-c1ccccc1`, the “hERG current change (%, negative = inhibition) at 10uM” value amounted to 12.7%.

Regarding `C=CCNc1cccc(Br)c1`, the “hERG current change (%, negative = inhibition) at 10uM” value was 6.85%.

In the case of `CCOC(=O)c1nn(-c2ccc(OCC)cc2)c2nc(CC(C)C)c(C#N)c(=O)n12`, the “hERG current change (%, negative = inhibition) at 10uM” value is listed as 1.4%.

Turning to `Fc1ccccc1Nc1nc(NCc2ccco2)nc(N2CCOCC2)n1`, the “hERG current change (%, negative = inhibition) at 10uM” value is reported as -15.8%.

For the molecule `Cc1cccnc1NC1CCCCC1`, the “hERG current change (%, negative = inhibition) at 10uM” value amounted to 26.3%.

Regarding `O=C(O)c1ccc(N2C(=O)CC(N3CCN(c4ccc(Cl)cc4)CC3)C2=O)cc1` (centres unmarked), the “hERG current change (%, negative = inhibition) at 10uM” value is 6.79%.

`CCc1ccc(Nc2n[n+](-c3ccccc3)c(-c3ccc(OCc4ccccc4)cc3)s2)cc1.[Cl-]`: the “hERG current change (%, negative = inhibition) at 10uM” value was -45.2%.

In the case of `Cc1ccc2cc(C)c3nnc(SCC(=O)N4CCCc5ccccc54)n3c2c1C`, the “hERG current change (%, negative = inhibition) at 10uM” value is -22.5%.

In the case of `CC(C)CC(=O)Nc1ccc(C(=O)COC(=O)C2CCC2)cc1`, the “hERG current change (%, negative = inhibition) at 10uM” value was 16.5%.

`Cc1cnc(NC(=O)CSc2nc3ccccc3s2)s1`: the “hERG current change (%, negative = inhibition) at 10uM” value is -19.3%.

For `O=C(CCl)c1cc2c3c(c1)CC(=O)N3CCC2`, the “hERG current change (%, negative = inhibition) at 10uM” value turned out to be 8.17%.

For `Cc1cc(=O)n2[nH]c(SCc3ccccc3Cl)nc2n1`, the “hERG current change (%, negative = inhibition) at 10uM” value is listed as 13%.

For the molecule `COC(=O)C1=C(c2ccc(C(C)=O)cc2)C[C@@H]2CC[C@H]1N2C(=O)NC1Cc2ccccc2C1`, the “hERG current change (%, negative = inhibition) at 10uM” value is listed as -47.7%.

On to `CCCOC(=O)c1ccc(NC(=O)Oc2ccccc2)cc1`, for which the “hERG current change (%, negative = inhibition) at 10uM” value turned out to be 3.21%.

Regarding `CCOC(=O)C1=C(CC)Nc2ccccc2N=C1NC(=O)c1ccc(S(=O)(=O)N2CCOCC2)cc1`, the “hERG current change (%, negative = inhibition) at 10uM” value is on record as -23.7%.

In the case of `COc1ccc(C(NC(=O)C2CCCCC2)c2c(O)ccc3ccccc23)cc1` (centres unmarked), the “hERG current change (%, negative = inhibition) at 10uM” value is 6.08%.

On to `O=C(/C=C/c1cccs1)NCc1ccc2c(c1)OCO2`, for which the “hERG current change (%, negative = inhibition) at 10uM” value was -12.9%.

`O=C(/C=C/c1ccccc1[N+](=O)[O-])OC1CCCCC1=O` (centres unmarked): the “hERG current change (%, negative = inhibition) at 10uM” value amounted to 16.3%.

On to `COc1cccc(NC(=O)CN(C)C(=O)c2cc3c(s2)CCC(C)C3)c1` (centres unmarked), for which the “hERG current change (%, negative = inhibition) at 10uM” value came out at 3.28%.

`Cc1[nH]c(C)c(S(=O)(=O)N2CCCCC2C)c1C(=O)N1CCCC1` (centres unmarked): the “hERG current change (%, negative = inhibition) at 10uM” value is listed as 17%.

On to `Cc1ccc(-c2nnc(NC(=O)CCS(=O)(=O)c3ccc(F)cc3)o2)c(C)c1`, for which the “hERG current change (%, negative = inhibition) at 10uM” value is recorded as 0.358%.

Turning to `COc1ccc(N(CC(=O)NC2CCCC2)C(=O)Cn2nnc(-c3ccc(C)cc3)n2)cc1`, the “hERG current change (%, negative = inhibition) at 10uM” value is given as -27.8%.

As for `COc1ccc(CCNC(=O)c2ccc3nc[nH]c3c2)cc1`, the “hERG current change (%, negative = inhibition) at 10uM” value worked out at 24.7%.

Turning to `O=C(NCCc1csc(-c2cccnc2)n1)c1cccs1`, the “hERG current change (%, negative = inhibition) at 10uM” value is listed as -5.91%.

Regarding `CCSC(C)CC1C/C(=N/O)c2c(CC)noc2C1` (centres unmarked), the “hERG current change (%, negative = inhibition) at 10uM” value was -24.2%.

In the case of `COc1cc(CNc2ncnc3c2[nH]c2ccc(C)cc23)cc(OC)c1`, the “hERG current change (%, negative = inhibition) at 10uM” value was determined as 8.03%.

`OCC[C@H]1C[C@@H](O)[C@H](O)[C@]2(CCCc3ccccc3O2)O1`: the “hERG current change (%, negative = inhibition) at 10uM” value stood at 10.8%.

`CC(=O)N1c2ccc(S(=O)(=O)N3CCC(C(=O)Nc4cccc(C)c4)CC3)cc2CC1C` (centres unmarked): the “hERG current change (%, negative = inhibition) at 10uM” value is 8.18%.

Take `CCc1ccc(N(C(=O)c2csnn2)C(C(=O)NC(C)(C)C)c2cccnc2)cc1` (centres unmarked): the “hERG current change (%, negative = inhibition) at 10uM” value stood at 4.59%.

Consider `COc1ccc(CNC(=O)COC(=O)CCCOc2ccc(Cl)cc2Cl)cc1`, for which the “hERG current change (%, negative = inhibition) at 10uM” value is 8.91%.

In the case of `CC(C)C(NS(=O)(=O)c1cc(C(=O)O)ccc1Cl)C(=O)O` (centres unmarked), the “hERG current change (%, negative = inhibition) at 10uM” value is on record as 3.34%.

Take `Cc1ccc(OCC(=O)NCCN2CCCC2)cc1.Cl`: the “hERG current change (%, negative = inhibition) at 10uM” value came out at 2.48%.

Take `CCOC(=O)/C(C#N)=C/c1c(N2CCN(Cc3ccc4c(c3)OCO4)CC2)nc2c(C)cccn2c1=O`: the “hERG current change (%, negative = inhibition) at 10uM” value is -2.37%.

Regarding `Clc1ccc(OCCn2ccnc2)cc1Cl.O=C(O)C(=O)O`, the “hERG current change (%, negative = inhibition) at 10uM” value turned out to be 9.38%.

As to `CC(N=c1ccccn1C(=O)Nc1ccc(F)cc1)c1ccco1` (centres unmarked), the “hERG current change (%, negative = inhibition) at 10uM” value stood at 5.95%.

For `COc1cccc(C(O)c2nc3ccccc3n2C(C)C)c1` (centres unmarked), the “hERG current change (%, negative = inhibition) at 10uM” value is on record as 3.4%.

Take `O=C(CSc1nnc2ccc(-c3cccnc3)nn12)Nc1ccccc1`: the “hERG current change (%, negative = inhibition) at 10uM” value was -50.6%.

In the case of `CCNC(=O)c1ccc(C23CC4CC(CC(C4)C2)C3)o1`, the “hERG current change (%, negative = inhibition) at 10uM” value is recorded as 12.9%.

For `CC1=C(C(=O)OC(C)C)C(c2cn(-c3ccccc3)nc2-c2cccs2)NC(=O)N1` (centres unmarked), the “hERG current change (%, negative = inhibition) at 10uM” value was 2.13%.

On to `Cc1ccc(O)c(-c2cc(-c3ccccc3[N+](=O)[O-])[nH]n2)c1`, for which the “hERG current change (%, negative = inhibition) at 10uM” value is -6.48%.

In the case of `O=C(O)c1cccc(-n2c(/C=C/c3ccc([N+](=O)[O-])cc3)nc3ccccc3c2=O)c1`, the “hERG current change (%, negative = inhibition) at 10uM” value turned out to be 1.6%.

Turning to `CCc1cccc(CC)c1NC(=O)COC(=O)CCc1cc(OC)c(OC)c(OC)c1`, the “hERG current change (%, negative = inhibition) at 10uM” value is recorded as -14.7%.

As for `O=C(O)/C=C(\Oc1ccccc1)C1(O)CCCCC1`, the “hERG current change (%, negative = inhibition) at 10uM” value was 8.23%.

In the case of `CCOC(=O)C1=C(COC(=O)/C=C/c2ccc(OC)c(OC)c2)NC(=O)NC1C` (centres unmarked), the “hERG current change (%, negative = inhibition) at 10uM” value stood at 1.35%.

`CCN(Cc1cnn(C)c1)C(=O)CC1C(=O)NCCN1Cc1cccc(OC)c1OC` (centres unmarked): the “hERG current change (%, negative = inhibition) at 10uM” value is -5.68%.

For the molecule `CCc1ccc(C(=O)C(C)OC(=O)C2COc3ccccc3O2)cc1` (centres unmarked), the “hERG current change (%, negative = inhibition) at 10uM” value is -18.9%.

On to `Cc1ccc(-n2c(=S)[nH]c3nc4c(cc3c2=O)COC(C)(C)C4)cc1`, for which the “hERG current change (%, negative = inhibition) at 10uM” value is reported as 9.68%.

On to `Cc1cc(C)cc(NC(=O)C2CCCN(c3nccc(C)n3)C2)c1` (centres unmarked), for which the “hERG current change (%, negative = inhibition) at 10uM” value was -14.4%.

As for `CCN(CC)C(=O)c1sc(N)c(C(=O)OC(C)C)c1C`, the “hERG current change (%, negative = inhibition) at 10uM” value was 3.27%.

Consider `COC(=O)c1cc2c(s1)=NC=NP=2(N1CCOCC1)N1CCOCC1`, for which the “hERG current change (%, negative = inhibition) at 10uM” value worked out at 13.1%.

As to `CN(CC(=O)Nc1ccccc1Cl)C(=O)COC(=O)c1ccc(S(=O)(=O)C(F)F)cc1`, the “hERG current change (%, negative = inhibition) at 10uM” value is -69.9%.

In the case of `COc1ccc(CC(=O)Nc2cccc3c2CCCC3)cc1`, the “hERG current change (%, negative = inhibition) at 10uM” value is 14.9%.

For the molecule `CCCOc1ccc(S(=O)(=O)NCCCN2CCOCC2)c2ccccc12`, the “hERG current change (%, negative = inhibition) at 10uM” value is -19%.

For `CC(C)C[C@H](NC(=O)c1nc[nH]c1C(=O)NCC(=O)OCc1ccccc1)C(=O)OCc1ccccc1`, the “hERG current change (%, negative = inhibition) at 10uM” value is 14.9%.

With `CCCOc1cccc(C(=O)Nc2nnn(CCC)n2)c1`, the “hERG current change (%, negative = inhibition) at 10uM” value is -7.44%.

Take `O=c1c2ccccc2oc2cc(OCc3cccc(F)c3)cc(O)c12`: the “hERG current change (%, negative = inhibition) at 10uM” value was determined as 18.8%.
